# In US20070059684A1 (UNIVERSITY OF MEDICINE AND DENTISTRY OF NEW JERSEY, published 2007):
# Experiments:
# Format in all cases: cell-based, Saccharomyces cerevisiae
# [1] = system: L-A derived −1 ribosomal frameshifting; conditions: JD88 cells
# [2] = system: Tyl derived +1 ribosomal frameshifting; conditions: JD88 cells, pJD104
# [3] = system: −1 ribosomal frameshifting in mof mutant cells
compound,measurement,setting,value
COc1ccc(C[C@H]2NC[C@H](O)[C@H]2OC(C)=O)cc1 [anisomycin],efficiency of −1 ribosomal frameshifting,[1]; increasing drug concentrations,decreasing −1 ribosomal frameshifting efficiencies
same,"effects on −1 ribosomal frameshifting, mixing experiment",[1]; anisomycin and sparsomycin together,cancel one another out
same,+1 ribosomal frameshifting,[2],neither drug had any affect on +1 ribosomal frameshifting
same,−1 frameshifting efficiencies,[3]; mof6-1 cells,does affect −1 frameshifting efficiencies
same,efficiency of −1 ribosomal frameshifting,[3]; mof9-1 cells,no effect
